In a collection of fitness landscapes (doi:10.1126/science.1257360):
The list shows a part of the results.

B1: PhoQ; a variant is named by its letters at X, in order, P23837 (parent)
chain: MKKLLRLFFPLSLRVRFLLATAAVVLVLSLAYGMVALIGYSVSFDKTTFRLLRGESNLFYTLAKWENNKLHVELPENIDKQSPTMTLIYDENGQLLWAQRDVPWLMKMIQPDWLKSNGFHEIEADVNDTSLLLSGDHSIQQQLQEVREDDDDAEMTHSVAVNVYPATSRMPKLTIVVVDTIPVELKSSYMVWSWFIYVLSANLLLVIPLLWVAAWWSLRPIEALAKEVRELEEHNRELLNPATTRELTSLVRNLNRLLKSERERYDKYRTTLTDLTHSLKTPLXXLQXXLRSLRSEKMSVSDAEPVMLEQISRISQQIGYYLHRASMRGGTLLSRELHPVAPLLDNLTSALNKVYQRKGVNISLDISPEISFVGEQNDFVEVMGNVLDNACKYCLEFVEISARQTDEHLYIVVEDDGPGIPLSKREVIFDRGQRVDTLRPGQGVGLAVAREITEQYEGKIVAGESMLGGARMEVIFGRQHSAPKDE

Variants of: B1
Assay: enrichment ratio after two sorts for PhoP signalling (ratio (wild type AVST 3.29)); higher = more functional
Conditions: with PhoP (E. coli)

Row | Variant | enrichment ratio
1 | FEIM | 3.82
2 | AAEK | ≤ 0.25
3 | PHAN | ≤ 0.25
4 | FKTC | ≤ 0.25
5 | DVLC | ≤ 0.25
6 | MSEG | ≤ 0.25
7 | TWIW | ≤ 0.25
8 | VGNA | ≤ 0.25
9 | KPHR | ≤ 0.25
10 | PDVN | ≤ 0.25
11 | YRRR | ≤ 0.25
12 | IQCT | ≤ 0.25
13 | ENCY | ≤ 0.25
14 | FSKV | ≤ 0.25
15 | VEHQ | ≤ 0.25
16 | SHRR | ≤ 0.25
17 | NNGF | ≤ 0.25
18 | RLQH | ≤ 0.25
19 | LQMQ | ≤ 0.25
20 | VLPI | ≤ 0.25
21 | KSIA | ≤ 0.25
22 | GERW | ≤ 0.25
23 | LAYT | ≤ 0.25
24 | KQTI | ≤ 0.25

Row | Variant | enrichment ratio
25 | DNRP | ≤ 0.25
26 | PGTQ | ≤ 0.25
27 | GALM | 12.1
28 | FLKF | ≤ 0.25
29 | YHRE | ≤ 0.25
30 | SWAQ | ≤ 0.25
31 | VRMD | ≤ 0.25
32 | THLR | ≤ 0.25
33 | DSGV | ≤ 0.25
34 | NIEH | ≤ 0.25
35 | TAML | 25.8
36 | HEFE | ≤ 0.25
37 | FSCT | ≤ 0.25
38 | YAYM | ≤ 0.25
39 | LPWC | ≤ 0.25
40 | WHCM | ≤ 0.25
41 | SPLA | ≤ 0.25
42 | ISVA | ≤ 0.25
43 | QFGH | ≤ 0.25
44 | HGPP | ≤ 0.25
45 | VPQT | ≤ 0.25
46 | RLQM | ≤ 0.25
47 | YSLL | 11.4
48 | EIYF | ≤ 0.25

Row | Variant | enrichment ratio
49 | MYWI | ≤ 0.25
50 | PYPY | ≤ 0.25
51 | QMYW | ≤ 0.25
52 | VHLS | ≤ 0.25
53 | EKLH | ≤ 0.25
54 | MGIH | 1.49
55 | DHGT | ≤ 0.25
56 | PQCT | ≤ 0.25
57 | EDKY | ≤ 0.25
58 | ENQF | ≤ 0.25
59 | WERP | ≤ 0.25
60 | IDSL | 0.274
61 | PDEI | ≤ 0.25
62 | LRPF | ≤ 0.25
63 | SKND | ≤ 0.25
64 | QWFN | ≤ 0.25
65 | LLLG | ≤ 0.25
66 | RPGW | ≤ 0.25
67 | KMRD | ≤ 0.25
68 | TPIG | ≤ 0.25
69 | IAGK | ≤ 0.25
70 | QMYV | ≤ 0.25
71 | HQRD | ≤ 0.25
72 | YHLR | ≤ 0.25

Row | Variant | enrichment ratio
73 | EHTH | ≤ 0.25
74 | QIQT | ≤ 0.25
75 | RGLD | ≤ 0.25
76 | GFKR | ≤ 0.25
77 | VEEV | ≤ 0.25
78 | YMVL | ≤ 0.25
79 | HFRT | ≤ 0.25
80 | ECYL | ≤ 0.25
81 | WYTH | ≤ 0.25
82 | IAVV | ≤ 0.25
83 | AYQY | ≤ 0.25
84 | HGAR | ≤ 0.25
85 | IYVH | ≤ 0.25
86 | MYTA | ≤ 0.25
87 | TFPK | ≤ 0.25
88 | MHGA | ≤ 0.25
89 | HCLC | ≤ 0.25
90 | PCTE | ≤ 0.25
91 | MYAK | ≤ 0.25
92 | SEVN | 6.45
93 | AGSA | 9.14
94 | TDGS | ≤ 0.25
95 | YPNF | ≤ 0.25
96 | MGGF | ≤ 0.25

Row | Variant | enrichment ratio
97 | DDGY | ≤ 0.25
98 | WPIR | ≤ 0.25
99 | RTCS | ≤ 0.25
100 | DICS | ≤ 0.25
101 | GCKK | ≤ 0.25
102 | AKEV | ≤ 0.25
103 | YCRC | ≤ 0.25
104 | NNNA | ≤ 0.25
105 | QGPD | ≤ 0.25
106 | LNWQ | ≤ 0.25
107 | VYEH | ≤ 0.25
108 | GYPF | ≤ 0.25
109 | LMKS | ≤ 0.25
110 | PYTI | ≤ 0.25
111 | HCPS | ≤ 0.25
112 | YGHH | ≤ 0.25
113 | VNTL | 2.18
114 | NPWV | ≤ 0.25
115 | MQFL | 2.22
116 | DTSY | ≤ 0.25
117 | SCQG | 7.52
118 | MRPP | ≤ 0.25
119 | FNNN | ≤ 0.25
120 | NCRP | ≤ 0.25

Row | Variant | enrichment ratio
121 | MVAW | ≤ 0.25
122 | GNPS | ≤ 0.25
123 | DEYG | ≤ 0.25
124 | NEFA | ≤ 0.25
125 | PSCG | ≤ 0.25
126 | EQFW | ≤ 0.25
127 | PKIA | ≤ 0.25
128 | KSHT | ≤ 0.25
129 | VAAH | ≤ 0.25
130 | LYRR | ≤ 0.25
131 | LCCD | ≤ 0.25
132 | GERA | ≤ 0.25
133 | AIHK | ≤ 0.25
134 | MFHF | ≤ 0.25
135 | INER | ≤ 0.25
136 | ERAY | ≤ 0.25
137 | SQFV | ≤ 0.25
138 | NMIS | ≤ 0.25
139 | TWPG | ≤ 0.25
140 | MIIM | ≤ 0.25
141 | DLHE | ≤ 0.25
142 | MFPV | ≤ 0.25
143 | YEGT | ≤ 0.25
144 | IWPW | ≤ 0.25

Row | Variant | enrichment ratio
145 | LMMN | ≤ 0.25
146 | GHDP | ≤ 0.25
147 | VINH | ≤ 0.25
148 | FWLQ | ≤ 0.25
149 | AFCW | ≤ 0.25
150 | MQLW | ≤ 0.25
151 | HALI | 12.2
152 | FMDM | ≤ 0.25
153 | NAIH | ≤ 0.25
154 | QNYN | ≤ 0.25
155 | EPGR | ≤ 0.25
156 | PRPC | ≤ 0.25
157 | SPSP | ≤ 0.25
158 | TKDP | ≤ 0.25
159 | PEWY | ≤ 0.25
160 | RNTE | ≤ 0.25
161 | FKMP | ≤ 0.25
162 | DKTL | ≤ 0.25
163 | EAEG | ≤ 0.25
164 | CFMC | ≤ 0.25
165 | TDKH | ≤ 0.25
166 | LKII | ≤ 0.25
167 | HNPK | ≤ 0.25
168 | DMPD | ≤ 0.25

Row | Variant | enrichment ratio
169 | NLHF | ≤ 0.25
170 | RENW | ≤ 0.25
171 | PYCV | ≤ 0.25
172 | WMRY | ≤ 0.25
173 | PVPW | ≤ 0.25
174 | QCLE | ≤ 0.25
175 | WFAV | ≤ 0.25
176 | SEGR | ≤ 0.25
177 | FPRS | ≤ 0.25
178 | EYPQ | ≤ 0.25
179 | ISMQ | 4.94
180 | MTVY | ≤ 0.25
181 | IGRR | ≤ 0.25
182 | PIGQ | ≤ 0.25
183 | PRNL | ≤ 0.25
184 | GQSR | ≤ 0.25
185 | GLAA | ≤ 0.25
186 | DCRL | ≤ 0.25
187 | HPAC | ≤ 0.25
188 | MHMK | ≤ 0.25
189 | LFHP | ≤ 0.25
190 | EMKV | ≤ 0.25
191 | LSIN | ≤ 0.25
192 | YHMW | ≤ 0.25

Row | Variant | enrichment ratio
193 | RMFD | ≤ 0.25
194 | RPEF | ≤ 0.25
195 | INAD | ≤ 0.25
196 | LRKN | ≤ 0.25
197 | NRQS | ≤ 0.25
198 | PTAN | ≤ 0.25
199 | RYSH | ≤ 0.25
200 | NHEW | ≤ 0.25
201 | FRMV | ≤ 0.25
202 | VIWR | ≤ 0.25
203 | TAMT | 11.1
204 | MIVW | ≤ 0.25
205 | SSDL | ≤ 0.25
206 | AKDM | ≤ 0.25
207 | WMGM | ≤ 0.25
208 | KGQY | ≤ 0.25
209 | TDWL | ≤ 0.25
210 | TIGL | 6.36
211 | YVYR | ≤ 0.25
212 | NKMR | ≤ 0.25
213 | NPWA | ≤ 0.25
214 | VVEH | ≤ 0.25
215 | QDWT | ≤ 0.25
216 | FNLE | ≤ 0.25

Row | Variant | enrichment ratio
217 | IMFE | 2.6
218 | RSDT | ≤ 0.25
219 | TWAG | ≤ 0.25
220 | NCGY | ≤ 0.25
221 | GKCQ | ≤ 0.25
222 | EDWA | ≤ 0.25
223 | ARIQ | ≤ 0.25
224 | TRVA | ≤ 0.25
225 | RSAD | ≤ 0.25
226 | WYFY | ≤ 0.25
227 | EVWK | ≤ 0.25
228 | SVPM | 7.47
229 | AMAM | 7.92
230 | HSVS | ≤ 0.25
231 | NFMQ | ≤ 0.25
232 | QNQQ | ≤ 0.25
233 | RMAN | ≤ 0.25
234 | YHMN | ≤ 0.25
235 | CFNN | ≤ 0.25
236 | MFMF | ≤ 0.25
237 | IGEG | ≤ 0.25
238 | YPLS | ≤ 0.25
239 | YWPM | ≤ 0.25
240 | MILM | 3.95

Row | Variant | enrichment ratio
241 | IHGL | ≤ 0.25
242 | WWWF | ≤ 0.25
243 | CFGC | ≤ 0.25
244 | HCEI | ≤ 0.25
245 | EATS | ≤ 0.25
246 | QFDQ | ≤ 0.25
247 | SVSH | 10.5
248 | VSMK | ≤ 0.25
249 | DFWE | ≤ 0.25
250 | VYVM | ≤ 0.25
251 | ENGI | ≤ 0.25
252 | ICIS | ≤ 0.25
253 | PVSK | ≤ 0.25
254 | VGMA | ≤ 0.25
255 | YEHG | ≤ 0.25
256 | AWLQ | ≤ 0.25
257 | KKAL | ≤ 0.25
258 | LQIK | ≤ 0.25
259 | HITP | ≤ 0.25
260 | FISD | ≤ 0.25
261 | MFGM | ≤ 0.25
262 | GYWS | ≤ 0.25
263 | VNHP | ≤ 0.25
264 | RLRW | ≤ 0.25

Row | Variant | enrichment ratio
265 | HYDQ | ≤ 0.25
266 | NKRF | ≤ 0.25
267 | LFPE | ≤ 0.25
268 | FTGH | 1.49
269 | GVYR | ≤ 0.25
270 | MNTF | ≤ 0.25
271 | DTVT | ≤ 0.25
272 | YIFG | ≤ 0.25
273 | GQVF | ≤ 0.25
274 | YWTL | ≤ 0.25
275 | IQQS | ≤ 0.25
276 | TEAK | 2.31
277 | PSCH | ≤ 0.25
278 | QDFY | ≤ 0.25
279 | IHRG | ≤ 0.25
280 | LRTP | ≤ 0.25
281 | VFEI | ≤ 0.25
282 | MEMH | ≤ 0.25
283 | TTMC | 6.54
284 | KYYS | ≤ 0.25
285 | HMAS | ≤ 0.25
286 | TQQH | ≤ 0.25
287 | HFLV | ≤ 0.25
288 | VHCV | ≤ 0.25

Row | Variant | enrichment ratio
289 | LRSM | ≤ 0.25
290 | WSSP | ≤ 0.25
291 | RFMI | ≤ 0.25
292 | TEFM | 3.29
293 | FDGS | ≤ 0.25
294 | FNCM | 5.18
295 | QEIK | ≤ 0.25
296 | KYVN | ≤ 0.25
297 | TPAE | ≤ 0.25
298 | RVDI | ≤ 0.25
299 | HPAI | ≤ 0.25
300 | DYAF | ≤ 0.25
301 | QGAV | 7.22
302 | RFAG | ≤ 0.25
303 | WMRT | ≤ 0.25
304 | HRDG | ≤ 0.25
305 | LMGI | ≤ 0.25
306 | GSCM | 7.32
